The supplement of paper PMC10126150
Values marked as one replicate rest on one cluster of the flow cell; about a third of the high ones do not repeat.

System: ATP
Assay: switch fluorescence ratio, 500 uM ATP over buffer (Cy3 cluster intensity, sum of 5 cycles each) (fold (ratio)); higher = stronger signal-on switching upon ATP binding; sequences stand for … in TCGTCGGCAGCGTCAGATGTGTATAAGAGACAGTTTTTTTTTTTTTTTTTTTTTTTTT…TC
Settings: aptamer strand: ATP DNA aptamer (quencher-CACCTGGGGGAGTATTGCGGAGGAAGG + anchor), 100 nM annealed; ATP concentration: 500 uM; one replicate
Procedure, shortened: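 For every switch-domain sequence, the fluorescence ratio is the mean of per-cluster values, each being summed target-cycle Cy3 intensity over summed buffer-cycle Cy3 intensity. Clusters outside 100-1000 RFU were excluded. On a modified Illumina MiSeq flow-cell, the Cy3-labelled switching-strand clusters were annealed to 100 nM quencher-labelled ATP aptamer, imaged in selection buffer and then after 15 min with 500 uM ATP at 22 °C. Five such cycles were run, with NaOH stripping and re-annealing between them.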
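Further: ATP exposure 15 min at 22 °C before imaging.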

TATAGCTCAC
switch fluorescence ratio: 1.09

TTTTTAGTCA
switch fluorescence ratio: 0.977

AGACCAGCCG
switch fluorescence ratio: 0.986

CGGGCTTAC
switch fluorescence ratio: 2.07

CGCCGATAGT
switch fluorescence ratio: 1.07

CTAATTCGAA
switch fluorescence ratio: 0.957

CATCGTGATC
switch fluorescence ratio: 1.51

AGGGTACCA
switch fluorescence ratio: 1.02

GGGAATC
switch fluorescence ratio: 1.03

AAAGCGAGGG
switch fluorescence ratio: 1.04

CGCACTGGGG
switch fluorescence ratio: 1.37

TGAAAGCCAA
switch fluorescence ratio: 0.998

TGTTAATCTT
switch fluorescence ratio: 1.04

AGTGGGCGCG
switch fluorescence ratio: 1.03

GCAGGCACGA
switch fluorescence ratio: 1.07

TATCCAGAGA
switch fluorescence ratio: 1.01

TAAAGAATAG
switch fluorescence ratio: 0.983

TCTGCTTGGT
switch fluorescence ratio: 0.977

TTATAAAACA
switch fluorescence ratio: 1.04

GCGCGTGAA
switch fluorescence ratio: 1.04

ATTATTGCCT
switch fluorescence ratio: 0.987

TTGCTGCGAC
switch fluorescence ratio: 1.04

CCTAGGGC
switch fluorescence ratio: 0.968

GTTGTACATA
switch fluorescence ratio: 1.06

GCGGCCTCAA
switch fluorescence ratio: 0.982

CAAATAAATG
switch fluorescence ratio: 0.98

AGAAGGAGTC
switch fluorescence ratio: 1.1

CATCTCCATA
switch fluorescence ratio: 1.01

TAGCACGCTG
switch fluorescence ratio: 1.1

GATTCCGATG
switch fluorescence ratio: 1.39

ACCCCCAGCT
switch fluorescence ratio: 2.15

AGCAACATTC
switch fluorescence ratio: 1.28

ACTGGTACT
switch fluorescence ratio: 1.19

GAGTGGGAGA
switch fluorescence ratio: 0.969

AATATCATTT
switch fluorescence ratio: 0.99

CTAAGGTAGT
switch fluorescence ratio: 1.01

AAGGATCAGG
switch fluorescence ratio: 1.02

TGAAATATGC
switch fluorescence ratio: 0.992

TACAATATTG
switch fluorescence ratio: 1.02

CTTTTAGGCG
switch fluorescence ratio: 1.05

GGGGTCGCTC
switch fluorescence ratio: 0.985

ACGGGCGTTT
switch fluorescence ratio: 0.998

GCATCCCACC
switch fluorescence ratio: 1.12

TTATCAAGAC
switch fluorescence ratio: 1.45

CACCGAGAAT
switch fluorescence ratio: 1.03

GGCCAAGTAA
switch fluorescence ratio: 1.11

AGCATGCTTG
switch fluorescence ratio: 0.979

GCCTGTAGTT
switch fluorescence ratio: 1.03

CTTGAATTTG
switch fluorescence ratio: 0.99

AAGTCTAG
switch fluorescence ratio: 0.987

CTCGCCTGTG
switch fluorescence ratio: 1.07

GACCGCAACG
switch fluorescence ratio: 1.43

CGCAATGGGT
switch fluorescence ratio: 3.99

TAAGGAGCAC
switch fluorescence ratio: 1.07

TACTTGGGTG
switch fluorescence ratio: 1.03

GTCGAGAGT
switch fluorescence ratio: 0.982

TGTTTGCGTG
switch fluorescence ratio: 0.966

CCTTCAATAG
switch fluorescence ratio: 1.15

GGAGTATTGT
switch fluorescence ratio: 1.04

GCGAGTAAGA
switch fluorescence ratio: 1.04

CTTCCCCGTA
switch fluorescence ratio: 2.42

ACTCTCCCCT
switch fluorescence ratio: 1.15

GGTTTATTCC
switch fluorescence ratio: 1.12

GCCATCAGC
switch fluorescence ratio: 1.03

CAGTTCAGCT
switch fluorescence ratio: 1.04

CTGTTTTTTC
switch fluorescence ratio: 1.03

ACCAAGGCAG
switch fluorescence ratio: 0.994

AACAGGTTAA
switch fluorescence ratio: 1.01

TGGAAACATG
switch fluorescence ratio: 1.01

AACCTTTACG
switch fluorescence ratio: 1.26

CCCAAGGCTA
switch fluorescence ratio: 1.13

AAGGGCTGCC
switch fluorescence ratio: 0.999

GCGGAGTGCA
switch fluorescence ratio: 1.03

AGGAGTGGAC
switch fluorescence ratio: 0.974

TTTACCCGAC
switch fluorescence ratio: 1.22

TATGTCCGTG
switch fluorescence ratio: 0.987

GCGTGAGCTT
switch fluorescence ratio: 1.05

ATCAGGGTGA
switch fluorescence ratio: 0.991

ACCGGGTAAT
switch fluorescence ratio: 0.95

TAAGATGAAG
switch fluorescence ratio: 0.95

TCCTCGTTAG
switch fluorescence ratio: 1.18

TTCGGGCCTT
switch fluorescence ratio: 1.02

TTGAGCTGAT
switch fluorescence ratio: 0.961

GACATGCACA
switch fluorescence ratio: 1.06

TTCAAATACT
switch fluorescence ratio: 1.11

AGGCTCAGAA
switch fluorescence ratio: 1

TCAGTGTAGA
switch fluorescence ratio: 1.01

CTTCTAAACC
switch fluorescence ratio: 1.06

ATTTTTTATG
switch fluorescence ratio: 0.959

AAAATCAACC
switch fluorescence ratio: 1.06

GCTTCGTATT
switch fluorescence ratio: 0.986

CAGAATCTAC
switch fluorescence ratio: 1.03

GGAGAACTAT
switch fluorescence ratio: 1.08

TGGCGCGTAT
switch fluorescence ratio: 1.01

CTGGCAATGG
switch fluorescence ratio: 3.27

TTCGCGTTA
switch fluorescence ratio: 1.13

CAGAGAATAG
switch fluorescence ratio: 1.17

TCCGACCGGC
switch fluorescence ratio: 2.04

ACTAGGCTGC
switch fluorescence ratio: 1.03

CGATTAATG
switch fluorescence ratio: 0.986

GCATTGAACG
switch fluorescence ratio: 0.992

TTGAGCTGAC
switch fluorescence ratio: 1.1

CATTGTACTG
switch fluorescence ratio: 1.03

TCGTAGCTCG
switch fluorescence ratio: 0.956

ATAGGAGATG
switch fluorescence ratio: 0.985

GAGACAGCGG
switch fluorescence ratio: 0.995

CGGAGGGTAA
switch fluorescence ratio: 1.05

GAGTTATAAA
switch fluorescence ratio: 0.994

GGCGAACGTT
switch fluorescence ratio: 0.976

CCGTGTTTGG
switch fluorescence ratio: 1.03

TAGGACGAGA
switch fluorescence ratio: 1.01

ATTGCACCGG
switch fluorescence ratio: 0.967

CAATAATCAG
switch fluorescence ratio: 1.01

ACATCGGTGC
switch fluorescence ratio: 1.06

GACGTGCTCG
switch fluorescence ratio: 0.932

GATAGGAAAG
switch fluorescence ratio: 0.978

TGAGGGCCCT
switch fluorescence ratio: 1.01

ATAGTTTCTG
switch fluorescence ratio: 1.02

CTATGTTAGG
switch fluorescence ratio: 0.979

TACTTCGGGC
switch fluorescence ratio: 1.02

GGCGAACTAG
switch fluorescence ratio: 1.04

GTCCTACTCT
switch fluorescence ratio: 0.953

GTATTTCAAG
switch fluorescence ratio: 0.966

CAGCAAAACT
switch fluorescence ratio: 2.13

CACTGTTACA
switch fluorescence ratio: 1.35

GGCTGTCCCG
switch fluorescence ratio: 0.964

CCTGATAGGA
switch fluorescence ratio: 1.01

AAGGCATGGA
switch fluorescence ratio: 1

TAGTGAGAGT
switch fluorescence ratio: 0.999

TAATGCCAGA
switch fluorescence ratio: 1

TGGGATATCA
switch fluorescence ratio: 1

TCAATATCTC
switch fluorescence ratio: 1.1

ATTGTTTAGG
switch fluorescence ratio: 1.02

CGGCATGAAA
switch fluorescence ratio: 1.01

CCATCGATGG
switch fluorescence ratio: 1.01

GATCTTCGCG
switch fluorescence ratio: 0.983

ATTCGATTCA
switch fluorescence ratio: 0.924

TAAGCAAGTA
switch fluorescence ratio: 1

TTTGAGCATG
switch fluorescence ratio: 0.986

GATATCCTGT
switch fluorescence ratio: 0.957

CATCTACGGT
switch fluorescence ratio: 0.994

AGTGGAGGCC
switch fluorescence ratio: 1.03

AATCGGACTT
switch fluorescence ratio: 0.961

ATTAGTGGG
switch fluorescence ratio: 1

GTCTGCCATG
switch fluorescence ratio: 1.01

AAGTAGCGAA
switch fluorescence ratio: 0.991

CGCTTGCCGG
switch fluorescence ratio: 1.02

GTACTACATC
switch fluorescence ratio: 1.04

GCAGTTTTGA
switch fluorescence ratio: 0.997

GCTGGGGTGT
switch fluorescence ratio: 1.05

GTTAGGCTGT
switch fluorescence ratio: 1.03

TAAAAGACCT
switch fluorescence ratio: 1.51

CTTAACCTGG
switch fluorescence ratio: 1.05

GTGGGGTGCG
switch fluorescence ratio: 0.977

AACGGCATAT
switch fluorescence ratio: 1.1

GCGGATAGGG
switch fluorescence ratio: 1.05

CGATGCGGCG
switch fluorescence ratio: 1.03
